# Source: PubChem BioAssay AID463173 (ICCB-Longwood Screening Facility, Harvard Medical School, 2010)
# Among all 52,000 compounds or so, about 1,700 (3.3%) were called active. Rule as the data show it: active = survival mostly below about 52% (no sharp cut-off); inactive = mostly above about 56%. The list shows a part of the results.
# Test system: Wild type
# Assay: growth inhibition of S. aureus wild type versus tarO mutant, primary screen, teichoic acid synthesis inhibitors, RN4220, OD600 (AID 463173)
# Conditions: S. aureus RN4220 wild type/DeltatarO growth, OD600, 18 h, active compounds read low, screened at 18.75 µg/mL (by protocol)
row,Structure (SMILES),survival
1,O=[N+]([O-])c1cc(-c2nc(-c3ccco3)no2)ccc1NCc1ccccc1,inactive: 70%
2,Nn1cnnc1SCC(=O)N(C1CCCCC1)C1CCCCC1,inactive: 107%
3,O=C(CN1CCCC1)Nc1ccc(F)cc1,inactive: 102%
4,COc1ccc(-n2nc(C(=O)N(C)c3cc(Cl)ccc3OC)c3c4ccccc4n(C)c3c2=O)cc1,inactive: 80%
5,COc1ccc(Cn2c(CO)cnc2SCc2ccc(F)cc2)cc1,active: -1%
6,CCc1ccc(Sc2cc(C(=O)O)c3ccccc3n2)cc1,inactive: 70%
7,N#CC1=C2SCN(C3CCCCC3)CN2C(=O)CC1c1c(F)cccc1Cl (centres undefined),inactive: 88%
8,Cc1ccc(Cc2nc3ccccc3nc2SCC(=O)N2CCN(c3ccccc3)CC2)cc1,inactive: 91%
9,Cc1ccc(NC(=O)CC2Nc3cc(C)c(C)cc3NC2=O)c(C)c1 (centres undefined),inactive: 73%
10,CCOc1ccccc1NC(=O)C1=C(C)Nc2ncnn2C1c1ccc(NC(C)=O)cc1 (centres undefined),inactive: 45%
11,COc1ccc(S(=O)(=O)c2nnn(-c3ccccc3F)c2C)cc1,inactive: 78%
12,Cc1nn(CCCC(=O)NCc2ccc(OC(C)C)cc2)c(=O)c2c1sc1ccccc12,inactive: 90%
13,Cc1cccc(CCNC(=O)c2ccc(CSCc3cccc(Cl)c3)o2)c1,inactive: 67%
14,Cc1cccc(N(Cc2cc3ccccc3[nH]c2=O)C(=O)c2cccc(Cl)c2)c1,inactive: 87%
15,CCCn1c(=N)n(CC(O)COc2ccccc2OC)c2ccccc21 (centres undefined),inactive: 66%
16,Cc1ccc(N2CC(NC(=O)CCc3ccccc3)CC2=O)cc1C (centres undefined),inactive: 78%
17,COCCn1c(SCC(=O)Nc2sc(C)c(C)c2C#N)nnc1C(C)C,inactive: 103%
18,Cc1ccc(S(=O)(=O)c2[nH]c(-c3ccccc3)nc2SCCC(=O)O)cc1,inactive: 87%
19,CCOc1ccc(NC(=O)c2c(Nc3ccccc3C)sc(C(=O)c3ccc(Cl)cc3)c2N)cc1,inactive: 131%
20,Cc1nn(CC(=O)N2CCN(c3cccc(C(F)(F)F)c3)CC2)c(=O)c2cc3sccc3n12,inactive: 82%
21,O=C(CSc1nnnn1-c1ccc2c(c1)OCCO2)NC1CCCC1,inactive: 111%
22,CCn1ccc2c(OCC(=O)NCc3ccccc3)cccc2c1=O,inactive: 66%
23,CCCN1CCN(c2cc3c(cc2F)c(=O)c(S(=O)(=O)c2ccc(CC)cc2)cn3CC)CC1,inactive: 70%

row,Structure (SMILES),survival
1,NC(=O)c1ccc(NC(=O)C2CCN(S(=O)(=O)Cc3ccccc3)CC2)cc1,inactive: 91%
2,Cc1ccc(C(=O)O)cc1NC1(c2ccccc2)C(=O)c2ccccc2C1=O,inactive: 131%
3,COc1ccc2oc(-c3ccc(C)c(NC(=O)c4ccc(-c5ccccc5[N+](=O)[O-])o4)c3)nc2c1,inactive: 48%
4,Cc1cccc(-c2nc3c(cnn3-c3ccccc3)c(=O)n2-c2ccc(Br)cc2)c1,inactive: 133%
5,COC(=O)c1ccc(Nc2cc(=O)[nH]c(=O)[nH]2)cc1,inactive: 108%
6,CC(C)(C)C1CCc2nc(NC(=O)c3ccc([N+](=O)[O-])cc3)sc2C1 (centres undefined),inactive: 83%
7,CC1Cn2c(C(=O)NCc3cccc(Br)c3)cc3cccc(c32)S1 (centres undefined),inactive: 82%
8,CCCN(C(=O)C1CC1)c1nnc(-c2ccc(Cl)cc2)s1,inactive: 100%
9,Cc1c(Cl)cccc1NC(=O)CSc1nc2ncccc2o1,active: 1%
10,CN(C)c1ccc(NC(=O)CSc2nc3ccccc3cc2C#N)cc1,inactive: 104%
11,CN1CCN(C(=S)NC(=O)c2ccccc2)CC1,inactive: 125%
12,COc1ccccc1CNC(=O)C1CCCN(c2nnc(C)c3c(C)n(-c4ccccc4)nc23)C1 (centres undefined),inactive: 91%
13,Cc1ccc2[nH]c(CSc3nnc(NC(=O)c4ccccc4F)s3)cc(=O)c2c1,inactive: 75%
14,O=C(CCSCc1cccc(Cl)c1)NCc1ccc(F)cc1Cl,inactive: 66%
15,C=Cc1ccc(Cn2c(=O)cc(C)c3c(C)nn(-c4ccccc4)c32)cc1,active: -1%
16,COc1cc(OC)cc(-c2cc3nc(C)c(CCC(=O)Nc4ccc(C(C)=O)cc4)c(C)n3n2)c1,inactive: 78%
17,COCc1cc(C)nc2sc3c(c12)NC(c1ccc(O)c(OC)c1)N(c1ccccc1)C3=O (centres undefined),inactive: 79%
18,COc1ccc(OCC(=O)N(Cc2cccs2)c2ccc(OC)cc2)cc1,inactive: 85%
19,CC(C)c1ccc(CNc2nc(-c3ccco3)nn2C(=O)c2ccc([N+](=O)[O-])cc2)cc1,inactive: 87%
20,CSCCC(NS(=O)(=O)c1ccc2c(c1)oc(=O)n2C)C(=O)Nc1ccc(Cl)cc1 (centres undefined),inactive: 93%
21,COc1ccc(NC(=O)Cn2c(=O)n(Cc3ccc4c(c3)OCO4)c(=O)c3ccc(C(=O)NC4CCCCC4)cc32)cc1,inactive: 74%
22,CCn1c(C)c(C)c2cc(C(=O)NCc3ccc(OC(C)C)cc3)ccc21,inactive: 72%
23,COc1ccc2c(c1)cc1c(=O)n(CC(=O)NCCCOC(C)C)nc(C)n12,inactive: 79%

row,Structure (SMILES),survival
1,CCOCCCNc1nc2ccccc2n2c(CC)nnc12,inactive: 124%
2,COc1ccc(-c2noc(N3CCC(C(=O)N4CCN(c5ccccc5F)CC4)CC3)n2)cc1,inactive: 108%
3,COc1ccc2occ(C(=O)c3coc4ccc(O)c(CN(C)C)c34)c2c1,inactive: 109%
4,COc1ccc(Cl)cc1S(=O)(=O)Nc1cccc(-c2ccc(N3CCCC3)nn2)c1,inactive: 66%
5,COc1ccc(-c2cn3nc(N4CCCC(C(=O)Nc5ccccc5OC)C4)sc3n2)cc1 (centres undefined),inactive: 135%
6,COc1ccccc1NC(=O)CSc1nc(-c2ccc(C)cc2)nc2c1Cc1c(CO)cnc(C)c1O2,inactive: 83%
7,Cc1nn2c(=O)cc(COC(=O)c3ccc(NC(=O)c4cccc(Br)c4)cc3)nc2s1,inactive: 113%
8,CCCN1C2CCCC1CC(NC(=O)NC1CCCCC1)C2 (centres undefined),inactive: 99%
9,Cc1ccc(Cl)cc1NC(=O)CN1C(=O)CSc2ccc(S(=O)(=O)N3CCCC3)cc21,inactive: 92%
10,C=CCn1cc(/C=C2\SC(=O)N(C)C2=O)c2ccccc21,inactive: 119%
11,COC(=O)c1ccccc1NC(=O)Cn1c(=O)n(CCC(=O)NCc2ccccc2OC)c(=O)c2ccccc21,inactive: 92%
12,Cc1cccc(NC(=O)CCN2CCN(c3ccccc3F)CC2)c1,inactive: 131%
13,CCOC(=O)c1c(S(=O)(=O)NCC(=O)N2CCN(c3cc(C)ccc3C)CC2)c(C)n(C)c1C,inactive: 82%
14,CCCN(C(=O)Cn1ncc2c1-c1ccccc1OC2)c1cccc(C)c1,inactive: 65%
15,Cc1cccc(N2CCN(c3ccc(C(=O)O)cc3NC(=O)c3cccc(Cl)c3)CC2C)c1 (centres undefined),inactive: 82%
16,CCc1ccc(-c2nc(SCC(=O)NCC3CCCO3)c(-c3ccc(C)cc3)[nH]2)cc1 (centres undefined),inactive: 86%
17,Cc1cccc(C)c1NC(=O)Cn1c(=O)n(CCCS(=O)(=O)C2CCCCC2)c(=O)c2ccccc21,inactive: 66%
18,CCOCCc1nn2c(=O)cc(COC(=O)Cc3ccccc3)nc2s1,active: -1%
19,CCOC(=O)C1CCN(c2c(C(=O)c3ccc(OC)cc3)cnc3ccccc23)CC1,inactive: 125%
20,COc1ccc(CCNC(=O)c2nc(SCc3ccccc3F)ncc2Cl)cc1OC,inactive: 84%
21,O=C(CSc1nccn1C1CCCC1)Nc1cccc(F)c1,inactive: 126%
22,CSCC[C@@H](C(=O)Nc1cccc(F)c1)N1Cc2ccccc2C1=O,inactive: 80%
23,CCOC(=O)c1cc2c(=O)n3ccccc3nc2n(Cc2ccco2)c1=NC(=O)c1ccc(C)c(C)c1,inactive: 60%

row,Structure (SMILES),survival
1,CN(c1ccccc1)S(=O)(=O)c1nnc(NC(=O)COc2ccccc2)s1,inactive: 72%
2,O=C(Cn1c(=O)oc2cc(S(=O)(=O)N3CCCCCC3)ccc21)Nc1ccc(F)cc1F,inactive: 89%
3,O=C(Nc1cc2c(cc1C(=O)c1cccc(Br)c1)OCCO2)c1ccccc1F,inactive: 56%
4,CN(C(=O)Cn1cnc2onc(-c3ccc(F)cc3)c2c1=O)c1ccccc1Cl,inactive: 71%
5,Cc1cc(C)cc(-n2c(C)cc(C(=O)C(=O)Nc3nnc(C)s3)c2C)c1,inactive: 101%
6,Cc1ccc(-n2c(=O)c3ccc(C(=O)NCc4ccco4)cc3n(CC(=O)Nc3ccccc3C(F)(F)F)c2=O)cc1,inactive: 87%
7,CCOc1ccccc1CNC(=O)c1ccc(NC(=O)N2CC(C)Sc3ccccc32)cc1 (centres undefined),inactive: 77%
8,CCOc1ccc(C(=O)NCc2nc3cccnc3n2Cc2cccc(OC)c2)cc1,inactive: 72%
9,COc1ccc2cc3c(N)c(C(=O)Nc4ncc(C)s4)sc3nc2c1,inactive: 105%
10,CCCN(CCC)C(=O)Cn1c(SCc2cccc(C(F)(F)F)c2)nc2cccnc21,inactive: 80%
11,O=C(NC1(C(F)(F)F)C(=O)Nc2c1c(=O)[nH]c(=O)n2-c1ccccc1)c1ccccc1 (centres undefined),inactive: 85%
12,CN1CCN(C(=O)c2ccc(C3SCC(=O)N3Cc3ccco3)cc2)CC1 (centres undefined),inactive: 104%
13,CCOC(=O)c1[nH]c(=O)[nH]c1CSc1ccccn1,inactive: 111%
14,N#Cc1ccccc1NC(=O)C(=O)NCCc1csc2nc(-c3cccc(F)c3)nn12,inactive: 81%
15,Cc1cccc(NC(=O)N2CCN(C)c3ncccc32)c1C,inactive: 92%
16,COc1ccc(OC)c(CNC(=O)CN(c2ccc(C)cc2)S(=O)(=O)N(C)C)c1,inactive: 80%
17,O=S(=O)(Nc1cccc(-c2ccc(N3CCCC3)nn2)c1)c1cc(F)ccc1F,inactive: 79%
18,CCOc1ccc(S(=O)(=O)Nc2ccc(OC)c(Cl)c2)c2cccnc12,inactive: 70%
19,Cc1cccc(OCCSc2nc3ccccc3n2CC(=O)N2CCOCC2)c1C,inactive: 75%
20,CCOc1ccc(C2C(C(N)=O)=C(C)Nc3nc(-c4cccc(Cl)c4)nn32)cc1OC (centres undefined),inactive: 94%
